Reference: PubChem BioAssay (Tox21)
Values joined by “and” are separate entries in the source; they are usually repeats but may differ in a detail not shown here. Equal entries are not always repeated. The inconclusive results got no clear call from the source; some entries with a clear call stand among them for comparison. For some of these results: Potencies of inconclusive entries are left out as doubtful fits. Active and inactive are the calls of the source. Calls follow the shape of the dose curve; as a rule, active = well fitted curve in the direction sought with a large enough effect in the repeat runs; inconclusive = weak or mixed curves; inactive = no such curve, though single readings can be large; an effect the other way counts as inactive or inconclusive.

Experiments:
[1] = A CellTox Green Cytotoxicity Assay to monitor cytotoxicity in HepG2 cells - 16 hour (AID 1224876); also: nearly all actives have a fitted effect of over 45% in size; also: potency is read from the fitted curve at half-maximal effect
How it was run: (§1)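 Real-time cytotoxicity: fluorescence of a cell-impermeant cyanine dye binding DNA of dead HepG2 cells, measured repeatedly (0–40 h) during compound exposure at 37 C. Cells seeded 600/well with reagent, dosed after 5 h.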

[2] = A CellTox Green Cytotoxicity Assay to monitor cytotoxicity in HepG2 cells - 24 hour (AID 1224878); also: nearly all actives have a fitted effect of over 45% in size; also: potency is read from the fitted curve at half-maximal effect; as to Cytotoxicity: % is scaled to controls: 0 for no effect and ±100 for the full control effect
How it was run: as §1

[3] = A CellTox Green Cytotoxicity Assay to monitor cytotoxicity in HepG2 cells - 40 hour (AID 1224879); also: nearly all actives have a fitted effect of over 40% in size; also: potency is read from the fitted curve at half-maximal effect
How it was run: as §1

[4] = A CellTox Green Cytotoxicity Assay to monitor cytotoxicity in HEK293 cells - 24 hour (AID 1224875); also: potency is read from the fitted curve at half-maximal effect; nearly all actives have a fitted effect of over 45% in size
How it was run: (§2)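 Fluorescence from a DNA-binding dye excluded by viable cells was measured repeatedly in the same HEK293 wells (600 cells/well) during continuous compound exposure at 37 C. Each assay gives one read point: 0, 8, 16, 24, 32 or 40 h.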

[5] = A CellTox Green Cytotoxicity Assay to monitor cytotoxicity in HEK293 cells - 32 hour (AID 1224881); also: nearly all actives have a fitted effect of over 40% in size; also: potency is read from the fitted curve at half-maximal effect
How it was run: as §2

[6] = A CellTox Green Cytotoxicity Assay to monitor cytotoxicity in HepG2 cells - 0 hour (AID 1224882); also: potency is read from the fitted curve at half-maximal effect; nearly all actives have a fitted effect of over 35% in size
How it was run: as §1

[7] = qHTS RealTime-Glo MT Cell Viability Assay in HepG2 cells - 32 hour (AID 1224877); also: % is scaled to controls: 0 for no effect and ±100 for the full control effect; nearly all actives have a fitted effect of over 55% in size
How it was run: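 Cell number in HepG2 cultures estimated from NanoLuc luminescence generated by metabolic reduction of a prosubstrate by living cells. The homogeneous, nonlytic format allowed repeated reads at 0, 8, 16, 24, 32 and 40 h of compound exposure.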
Tags tell the direction and shape of the fitted curve.

## O=C(O)[C@@H]1[C@H]2C[C@H]3c4[nH]c5ccccc5c4CCN3C[C@@H]2CC[C@@H]1O
[1]
  Potency: inconclusive [activator, single point]
[2]
  Potency: inconclusive [activator, single point]
[3]
  Potency: inconclusive [activator, partial curve]

## CCCCCCCCCCCCCC(=O)OCC(O)CO (stereo unspecified)
[4]
  Potency: inconclusive [activator, single point]
[5]
  Potency: inconclusive [activator, partial curve, poor fit]

## CCC(CO)(CO)[N+](=O)[O-]
[1]
  Potency: inconclusive [activator, single point]
[2]
  Potency: inconclusive [activator, single point]
[3]
  Potency: inconclusive [activator, single point]

## COc1ccc(-n2nc(C(F)F)cc2-c2ccc(S(C)=O)cc2)cc1 (stereo unspecified)
[1]
  Potency: inconclusive [activator, single point]
[2]
  Potency: inconclusive [activator, single point]
[3]
  Potency: inconclusive [activator, single point]

## CN(C)CCOC(c1ccc(Cl)cc1)c1ccccn1 (stereo unspecified)
[1]
  Potency: inactive

## CC(CN(C)C)C(C)(O)Cc1ccc(Cl)cc1 (stereo unspecified)
[1]
  Potency: inconclusive [activator, single point]
[6]
  Potency: inconclusive [activator, single point]

## O=C(CN1CCNCC1)NC1CCCCC1
[1]
  Potency: inactive

## CC(CN)CCCN (stereo unspecified)
[1]
  Potency: inactive
[3]
  Potency: inactive

## CCCCOC(=O)CC
[1]
  Potency: inconclusive [activator, single point]
[2]
  Potency: inconclusive [activator, single point]
[3]
  Potency: inconclusive [activator, partial curve, poor fit]

## O=C(O)CCCc1ccccc1
[2]
  Potency: inconclusive [activator, single point]
[6]
  Potency: inconclusive [activator, single point]

## c1ccc2[nH]cnc2c1
[2]
  Potency: inconclusive [activator, single point]
[3]
  Potency: inconclusive [activator, single point]

## N[C@H](C(=O)O)c1ccc(O)cc1
[7]
  activity change, negative = cytotoxic: inactive: 3.27% [at 15.8 µM]

## COCC(C)N (stereo unspecified)
[2]
  Potency: inconclusive [activator, single point]

## Cn1c(=O)c2c(ncn2CCO)n(C)c1=O
[2]
  Potency: inconclusive [activator, single point]
[3]
  Potency: inconclusive [activator, single point]
[6]
  Potency: inconclusive [activator, single point]

## CCN(CC)CCNC(=O)c1cc(Cl)c(N)cc1OC
[2]
  Potency: inactive

## NS(=O)(=O)c1cc(C2(O)NC(=O)c3ccccc32)ccc1Cl (stereo unspecified)
[2]
  Potency: inactive
[3]
  Potency: inactive

## O=C(O)c1cccc(C(F)(F)F)c1
[2]
  Potency: inactive

## CCC(C)C=O (stereo unspecified)
[3]
  Potency: inconclusive [activator, partial curve, poor fit]

## Cc1ccccc1C(=O)O
[2]
  Potency: inconclusive [activator, single point]
[3]
  Potency: inconclusive [activator, single point]

## COCc1c(C(C)C)nc(C(C)C)c(/C=C/[C@@H](O)C[C@@H](O)CC(=O)O)c1-c1ccc(F)cc1
[2]
  Potency: active: 301 nM and active: 4.32 µM
[5]
  Potency: inactive

## CCCCc1ccc2cccc(S(=O)(=O)O)c2c1
[2]
  Potency: inconclusive [activator, partial curve, poor fit]
[3]
  Potency: inconclusive [activator, partial curve, poor fit]

## C#Cc1ccc(-c2ccccc2F)cc1
[3]
  Potency: inconclusive [activator, full curve, poor fit]

## CC1=C(C(=O)O)N2C(=O)[C@@H](NC(=O)[C@H](N)C3=CCC=CC3)[C@H]2SC1
[2]
  Potency: inactive

## CCCCCCOC(=O)CC(CC(=O)OCCCCCC)(OC(=O)CCC)C(=O)OCCCCCC
[2]
  Potency: inactive

## CCC(CC)C(C)CCOC(C)=O (stereo unspecified)
[3]
  Potency: inactive

## Cc1ccc(C(C)OC(=O)C2(C)CCC(C(=O)O)C2(C)C)cc1 (stereo unspecified)
[2]
  Potency: inactive

## CC(C)C[C@@H](N)C(=O)O
[7]
  activity change, negative = cytotoxic: inactive: 4.67% [at 15.8 µM]
